Here are results for one molecule from doi:10.1101/2020.06.24.169185 (bioRxiv, 2020).

This assay concerns the target T1, mCherry-Nanog (UniProt Q80Z64 1-305).
T1 sequence (looked up): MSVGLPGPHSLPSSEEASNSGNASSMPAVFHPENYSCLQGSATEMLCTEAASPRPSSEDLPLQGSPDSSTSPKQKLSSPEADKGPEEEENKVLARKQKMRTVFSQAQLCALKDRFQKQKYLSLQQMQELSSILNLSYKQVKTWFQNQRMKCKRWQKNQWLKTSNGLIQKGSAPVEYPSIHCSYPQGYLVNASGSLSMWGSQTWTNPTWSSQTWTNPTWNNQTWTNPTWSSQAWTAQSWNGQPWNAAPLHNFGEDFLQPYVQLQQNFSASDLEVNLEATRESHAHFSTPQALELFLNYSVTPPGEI
Briefly: fluorescence cross-correlation spectroscopy.

B1: GFP-Oct4 (natural protein)
chain: not shown
In turn, B1 returned a complex % of 12.5%.
